# From the supplement of paper PMC12217912
# This is one part of the list. Sequences were assembled here from the parent chain. Inactive controls read about 0.05.
# B1: TEV protease; numbered along this chain (parent)
# chain: MGESLFKGPRDYNPISSSICHLTNESDGHTTSLYGIGFGPFIITNKHLFRRNNGTLVVQSLHGVFKVKDTTTLQQHLVDGRDMIIIRMPKDFPPFPQKLKFREPQREERICLVTTNFQTKSMSSMVSDTSCTFPSGDGIFWKHWIQTKDGQCGSPLVSTRDGFIVGIHSASNFTNTNNYFTSVPKNFMELLTNQEAQQWVSGWRLNADSVLWGGHKVFMVKPEEPFQPVKEATQL
# Variants of: B1
# Test: raw area under fraction-flipped curve 0-4 h after induction (AUC4h, not background-subtracted), DNA-recorder readout of cleavage of the substrate (dimensionless); higher = more cleavage of the substrate by the protease variant
# Settings: temperature: 34 °C; time window: 0-4 h after rhamnose induction
# Description: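 In vivo DNA recorder in E. coli TOP10(DE3) ΔrhaA at 34 °C. Each TEVp single-site mutant (parent TEVp 0) is paired with a single-site variant of the 7-mer TEVs (canonical ENLYFQ|S). The substrate sits between flexible linkers in a Bxb1-sfGFP-TEVs-SsrA fusion, so cleavage stabilises Bxb1 and speeds flipping of a recombination array, read by NGS. The value is the raw area under the fraction-flipped curve over 0-4 h after rhamnose induction (AUC4h), with ≥20 reads per time point. It is not background-subtracted; inactive controls average about 0.047.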
# 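Also: Bxb1 expression induced with 0.2% (w/v) L-rhamnose at OD600 near 0.5, cultures sampled hourly, flipped fraction per protease–substrate barcode pair counted by paired-end Illumina sequencing.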
Variant,area with substrate EELYFQS,area with substrate EFLYFQS,area with substrate EGLYFQS,area with substrate EHLYFQS,area with substrate EILYFQS,area with substrate EKLYFQS,area with substrate ELLYFQS,area with substrate EMLYFQS,area with substrate EQLYFQS,area with substrate ESLYFQS
MGESLFKGPRDYNPISSSICHLTNESDGHTTSLYGIGFGPFIITNKHLFRRNNGTLVVQSLHGVFKVKDTTTLQQHLVDGRDMIIIRMPKDFPPFPQKLKFREPQREERICLVTTNFQTKSMSSMVSDTSCTFPSGDGIFWKHWIQTKDGQCGSPLVSTRDGFIVGIHSASNFTNTNNYFTSVPKNFMELLTNQEAQQWVSGWRLNADSVLWGGHKVFMVKPEEPFQPVKEATQG [L235G],0.126,0.0966,0.0706,0.114,0.0811,0.107,0.0909,0.126,0.0932,0.102
MGESLFKGPRDYNPISSSICHLTNESDGHTTSLYGIGFGPFIITNKHLFRRNNGTLVVQSLHGVFKVKDTTTLQQHLVDGRDMIIIRMPKDFPPFPQKLKFREPQREERICLVTTNFQTKSMSSMVSDTSCTFPSGDGIFWKHWIQTKDGQCGSPLVSTRDGFIVGIHSASNFTNTNNYFTSVPKNFMELLTNQEAQQWVSGWRLNADSVLWGGHKVFMVKPEEPFQPVKEATQN [L235N],0.128,–,0.0824,–,0.105,0.0984,–,–,–,–
MGESLFKGPRDYNPISSSICHLTNESDGHTTSLKGIGFGPFIITNKHLFRRNNGTLVVQSLHGVFKVKDTTTLQQHLVDGRDMIIIRMPKDFPPFPQKLKFREPQREERICLVTTNFQTKSMSSMVSDTSCTFPSGDGIFWKHWIQTKDGQCGSPLVSTRDGFIVGIHSASNFTNTNNYFTSVPKNFMELLTNQEAQQWVSGWRLNADSVLWGGHKVFMVKPEEPFQPVKEATQL [Y34K],–,0.107,0.0874,–,0.0817,–,–,0.106,–,0.081
MGESLFKGPRDYNPISSSICHLTNESDGHTTSLYGIGFGPFIITNKHLFRRNNGTLVVQSLHGVFKVKDTTTLQQHLVDGRDVIIIRMPKDFPPFPQKLKFREPQREERICLVTTNFQTKSMSSMVSDTSCTFPSGDGIFWKHWIQTKDGQCGSPLVSTRDGFIVGIHSASNFTNTNNYFTSVPKNFMELLTNQEAQQWVSGWRLNADSVLWGGHKVFMVKPEEPFQPVKEATQL [M83V],–,0.0671,–,–,–,0.0555,0.0785,0.0628,–,–
MGESLFKGPRDYNPISSSICHLTNESDGHTTSLYGIGFGPFIITNKHLFRRNNGTLVVQSLHGVFKVKDTTTLQQHLVDGRDMIIIRMPKDFPPFPQKLKFREPQREERICLVTTMFQTKSMSSMVSDTSCTFPSGDGIFWKHWIQTKDGQCGSPLVSTRDGFIVGIHSASNFTNTNNYFTSVPKNFMELLTNQEAQQWVSGWRLNADSVLWGGHKVFMVKPEEPFQPVKEATQL [N116M],–,0.102,–,0.13,–,–,–,–,–,0.0637
MGESLFKGPRDYNPISSSICHLTNESDGHTTSLYGIGFGPFIITNKHLFRRNNGTLVVQSLHGVFKVKDTTTLQQHLVDGRDMIIIRMPKDFPPFPQKLKFREPQREERICLVTTNFQTKCMSSMVSDTSCTFPSGDGIFWKHWIQTKDGQCGSPLVSTRDGFIVGIHSASNFTNTNNYFTSVPKNFMELLTNQEAQQWVSGWRLNADSVLWGGHKVFMVKPEEPFQPVKEATQL [S121C],–,0.107,0.087,0.133,0.113,0.127,0.0832,0.14,0.12,0.115
MGESLFKGPRDYNPISSSICHLTNESDGHTTSLYGIGFGPFIITNKHLFRRNNGTLVVQSLHGVFKVKDTTTLQQHLVDGRDMIIIRMPKDFPPFPQKLKFREPQREERICLVTTNFQTKSMSSMVSDTSCTFSSGDGIFWKHWIQTKDGQCGSPLVSTRDGFIVGIHSASNFTNTNNYFTSVPKNFMELLTNQEAQQWVSGWRLNADSVLWGGHKVFMVKPEEPFQPVKEATQL [P134S],–,0.0718,0.0806,–,0.0815,–,–,0.0959,0.0874,0.0892
MGESLFKGPRDYNPISSSICHLTNESDGHTTSLYGIGFGPFIITNKHLFRRNNGTLVVQSLHGVFKVKDTTTLQQHLVDGRDMIIIRMPKDFPPFPQKLKFREPQREERICLVTTNFQTKSMSSMVSDTSCTFPSGDGIFWKHWIQTSDGQCGSPLVSTRDGFIVGIHSASNFTNTNNYFTSVPKNFMELLTNQEAQQWVSGWRLNADSVLWGGHKVFMVKPEEPFQPVKEATQL [K148S],–,0.0915,0.093,–,0.0898,0.0957,–,0.106,–,0.0813
MGESLFKGPRDYNPISSSICHLTNESDGHTTSLYGIGFGPFIITNKHLFRRNNGTLVVQSLHGVFKVKDTTTLQQHLVDGRDMIIIRMPKDFPPFPQKLKFREPQREERICLVTTNFQTKSMSSMVSDTSCTFPSGDGIFWKHWIQTKDGQCESPLVSTRDGFIVGIHSASNFTNTNNYFTSVPKNFMELLTNQEAQQWVSGWRLNADSVLWGGHKVFMVKPEEPFQPVKEATQL [G153E],–,0.0454,–,0.0551,–,0.0487,–,0.041,0.0689,0.0668
MGESLFEGPRDYNPISSSICHLTNESDGHTTSLYGIGFGPFIITNKHLFRRNNGTLVVQSLHGVFKVKDTTTLQQHLVDGRDMIIIRMPKDFPPFPQKLKFREPQREERICLVTTNFQTKSMSSMVSDTSCTFPSGDGIFWKHWIQTKDGQCGSPLVSTRDGFIVGIHSASNFTNTNNYFTSVPKNFMELLTNQEAQQWVSGWRLNADSVLWGGHKVFMVKPEEPFQPVKEATQL [K7E],–,–,0.0987,0.173,–,–,–,–,0.103,–
MGESLFKGPRDYNPISSSICHLTNESDGHTTSLWGIGFGPFIITNKHLFRRNNGTLVVQSLHGVFKVKDTTTLQQHLVDGRDMIIIRMPKDFPPFPQKLKFREPQREERICLVTTNFQTKSMSSMVSDTSCTFPSGDGIFWKHWIQTKDGQCGSPLVSTRDGFIVGIHSASNFTNTNNYFTSVPKNFMELLTNQEAQQWVSGWRLNADSVLWGGHKVFMVKPEEPFQPVKEATQL [Y34W],–,–,0.0747,–,–,–,–,–,–,–
MGESLFKGPRDYNPISSSICHLTNESDGHTTSLYGIGFGPFIITNKHLFRRNNGTLVQQSLHGVFKVKDTTTLQQHLVDGRDMIIIRMPKDFPPFPQKLKFREPQREERICLVTTNFQTKSMSSMVSDTSCTFPSGDGIFWKHWIQTKDGQCGSPLVSTRDGFIVGIHSASNFTNTNNYFTSVPKNFMELLTNQEAQQWVSGWRLNADSVLWGGHKVFMVKPEEPFQPVKEATQL [V58Q],–,–,0.0477,–,0.0487,0.0688,–,0.0527,–,0.0487

# Same assay, conditions: temperature: 34 °C; time window: 0-4 h after rhamnose induction
Variant,area with substrate EPLYFQS,area with substrate ERLYFQS,area with substrate EWLYFQS,area with substrate ETLYFQS,area with substrate EVLYFQS,area with substrate EYLYFQS
MGESLFKGPRDYNPISSSICHLTNESDGHTTSLYGIGFGPFIITNKHLFRRNNGTLVVQSLHGVFKVKDTTTLQQHLVDGRDMIIIRMPKDFPPFPQKLKFREPQREERICLVTTNFQTKSMSSMVSDTSCTFPSGDGIFWKHWIQTKDGQCGSPLVSTRDGFIVGIHSASNFTNTNNYFTSVPKNFMELLTNQEAQQWVSGWRLNADSVLWGGHKVFMVKPEEPFQPVKEATQN [L235N],0.0906,0.12,0.0844,–,–,–
MGESLFKGPRDYNPISSSICHLTNESDGHTTSLYGIGFGPFIITNKHLFRRNNGTLVVQSLHGVFKVKDTTTLQQHLVDGRDMIIIRMPKDFPPFPQKLKFREPQREERICLVTTMFQTKSMSSMVSDTSCTFPSGDGIFWKHWIQTKDGQCGSPLVSTRDGFIVGIHSASNFTNTNNYFTSVPKNFMELLTNQEAQQWVSGWRLNADSVLWGGHKVFMVKPEEPFQPVKEATQL [N116M],0.117,–,–,–,–,–
MGESLFKGPRDYNPISSSICHLTNESDGHTTSLYGIGFGPFIITNKHLFRRNNGTLVVQSLHGVFKVKDTTTLQQHLVDGRDMIIIRMPKDFPPFPQKLKFREPQREERICLVTTNFQTKCMSSMVSDTSCTFPSGDGIFWKHWIQTKDGQCGSPLVSTRDGFIVGIHSASNFTNTNNYFTSVPKNFMELLTNQEAQQWVSGWRLNADSVLWGGHKVFMVKPEEPFQPVKEATQL [S121C],–,0.0984,–,0.113,0.0979,–
MGESLFKGPRDYNPISSSICHLTNESDGHTTSLYGIGFGPFIITNKHLFRRNNGTLVVQSLHGVFKVKDTTTLQQHLVDGRDMIIIRMPKDFPPFPQKLKFREPQREERICLVTTNFQTKSMSSMVSDTSCTFSSGDGIFWKHWIQTKDGQCGSPLVSTRDGFIVGIHSASNFTNTNNYFTSVPKNFMELLTNQEAQQWVSGWRLNADSVLWGGHKVFMVKPEEPFQPVKEATQL [P134S],0.0973,0.0885,0.0286,–,–,–
MGESLFKGPRDYNPISSSICHLTNESDGHTTSLYGIGFGPFIITNKHLFRRNNGTLVVQSLHGVFKVKDTTTLQQHLVDGRDMIIIRMPKDFPPFPQKLKFREPQREERICLVTTNFQTKSMSSMVSDTSCTFPSGDGIFWKHWIQTSDGQCGSPLVSTRDGFIVGIHSASNFTNTNNYFTSVPKNFMELLTNQEAQQWVSGWRLNADSVLWGGHKVFMVKPEEPFQPVKEATQL [K148S],0.101,–,–,–,0.0744,–
MGESLFKGPRDYNPISSSICHLTNESDGHTTSLYGIGFGPFIITNKHLFRRNNGTLVVQSLHGVFKVKDTTTLQQHLVDGRDMIIIRMPKDFPPFPQKLKFREPQREERICLVTTNFQTKSMSSMVSDTSCTFPSGDGIFWKHWIQTKDGQCESPLVSTRDGFIVGIHSASNFTNTNNYFTSVPKNFMELLTNQEAQQWVSGWRLNADSVLWGGHKVFMVKPEEPFQPVKEATQL [G153E],–,0.0582,–,–,–,–
MGESLFEGPRDYNPISSSICHLTNESDGHTTSLYGIGFGPFIITNKHLFRRNNGTLVVQSLHGVFKVKDTTTLQQHLVDGRDMIIIRMPKDFPPFPQKLKFREPQREERICLVTTNFQTKSMSSMVSDTSCTFPSGDGIFWKHWIQTKDGQCGSPLVSTRDGFIVGIHSASNFTNTNNYFTSVPKNFMELLTNQEAQQWVSGWRLNADSVLWGGHKVFMVKPEEPFQPVKEATQL [K7E],–,0.1,–,–,0.0956,–
MGESLFKGPRDYNPISSSICHLTNESDGHTTSLYGIGFGPFIITNKHLFRRNNGTLVQQSLHGVFKVKDTTTLQQHLVDGRDMIIIRMPKDFPPFPQKLKFREPQREERICLVTTNFQTKSMSSMVSDTSCTFPSGDGIFWKHWIQTKDGQCGSPLVSTRDGFIVGIHSASNFTNTNNYFTSVPKNFMELLTNQEAQQWVSGWRLNADSVLWGGHKVFMVKPEEPFQPVKEATQL [V58Q],0.0583,–,–,–,–,0.0519
